Here are results for 56 molecules from publication PMC4336329 (PLoS ONE, 2015).

About 14,000 (4.5%) of roughly 310,000 compounds showed an effect of 50% or more. The effect is printed as a negative number. The list shows a part of the results.
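Note: peak tail current of the secondary pulse compared with the same well before compound.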

Chain of human ether-à-go-go-related gene (hERG) potassium channel (Q12809 whole entry, looked up): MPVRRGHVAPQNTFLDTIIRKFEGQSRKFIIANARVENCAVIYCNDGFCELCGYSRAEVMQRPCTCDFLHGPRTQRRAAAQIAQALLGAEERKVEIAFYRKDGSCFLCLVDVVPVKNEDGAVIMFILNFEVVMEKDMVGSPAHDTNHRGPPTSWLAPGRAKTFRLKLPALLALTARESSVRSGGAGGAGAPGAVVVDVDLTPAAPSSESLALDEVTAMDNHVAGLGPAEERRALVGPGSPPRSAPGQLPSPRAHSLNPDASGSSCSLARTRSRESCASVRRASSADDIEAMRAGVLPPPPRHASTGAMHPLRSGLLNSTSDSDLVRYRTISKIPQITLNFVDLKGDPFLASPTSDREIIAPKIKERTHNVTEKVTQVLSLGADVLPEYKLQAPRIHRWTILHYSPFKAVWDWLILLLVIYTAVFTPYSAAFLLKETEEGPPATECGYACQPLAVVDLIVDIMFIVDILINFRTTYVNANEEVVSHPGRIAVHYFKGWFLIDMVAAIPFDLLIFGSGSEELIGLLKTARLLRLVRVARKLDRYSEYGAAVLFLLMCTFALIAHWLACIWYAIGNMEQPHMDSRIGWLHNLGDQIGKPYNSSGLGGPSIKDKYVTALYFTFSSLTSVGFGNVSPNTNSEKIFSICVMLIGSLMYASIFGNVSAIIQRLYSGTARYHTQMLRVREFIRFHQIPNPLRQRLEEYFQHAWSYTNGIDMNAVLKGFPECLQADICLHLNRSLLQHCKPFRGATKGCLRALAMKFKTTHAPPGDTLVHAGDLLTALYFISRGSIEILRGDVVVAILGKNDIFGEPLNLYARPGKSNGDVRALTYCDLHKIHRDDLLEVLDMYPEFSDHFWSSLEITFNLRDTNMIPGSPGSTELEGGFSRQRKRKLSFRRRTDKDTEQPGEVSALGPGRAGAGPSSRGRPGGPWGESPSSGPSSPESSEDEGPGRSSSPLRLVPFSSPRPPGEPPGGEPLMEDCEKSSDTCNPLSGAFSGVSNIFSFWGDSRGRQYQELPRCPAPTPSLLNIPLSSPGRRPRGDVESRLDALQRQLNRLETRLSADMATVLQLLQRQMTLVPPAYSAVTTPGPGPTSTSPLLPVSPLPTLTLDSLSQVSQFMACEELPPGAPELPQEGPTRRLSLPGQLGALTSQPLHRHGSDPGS

The test concerns the target human ether-à-go-go-related gene (hERG) potassium channel (human, UniProt Q12809). Description: primary screen, population patch clamp on CHO cells stably expressing hERG.
`COc1ccccc1NC(=O)/C(=C\c1cccs1)NC(=O)c1ccco1`: the “hERG current change (%, negative = inhibition) at 10uM” value is reported as -18.1%.
The result for `Cc1c(NC(=O)CCCCCN2C(=O)c3ccccc3C2=O)c(=O)n(-c2ccccc2)n1C` reads 10.7%; that for `COC(=O)c1ccc(CN2CCN(C3CCCC3)C(CCO)C2)cc1` (centres unmarked), -32.2%; that for `CC1(C)CC(=NOC(=O)c2ccccc2)CC(C)(C)N1O`, 8.56%.
The result for `Cc1ccc(N/C=C2\CCCCC2=O)c(C)c1` reads -4.26%.
Regarding `CN1C2=CC=CC=CC2=[N+](C)C12C=CC(=[N+]([O-])[O-])C=C2[N+](=O)[O-]` (centres unmarked), the “hERG current change (%, negative = inhibition) at 10uM” value is listed as -5.86%.
The result for `CC(=O)Nc1cccc(NC(=O)c2ccc(Br)cc2)c1` reads 15.8%; that for `Cn1c(=O)c2c(ncn2CC(=O)Nc2ccc(N3CCOCC3)cc2)n(C)c1=O`, 15.4%.
The result for `CC(C)CC(OC(=O)c1ccc(Cl)nc1)C(=O)NC1CCCC1` (centres unmarked) reads 13.8%; that for `Cc1cccc(NC(=O)C2CCN(S(=O)(=O)c3c(C)[nH]c(=O)[nH]c3=O)CC2)c1`, -15.3%; that for `CCCNC(=S)N1CCC(NC(=O)Nc2ccc(C)cc2)CC1`, 14.7%.
The result for `CCn1c(CCc2ccccc2)nc2ccccc21.Cl` reads -5.78%.
On to `Cc1nc(N/N=C/c2ccc(O)cc2O)cc(N2CCOCC2)n1`, for which the “hERG current change (%, negative = inhibition) at 10uM” value is recorded as -2.03%.
The value for `O=c1cc(O)c2ccccc2n1Cc1ccccc1F` was 7.81%; that for `O=c1nccc(N/N=C/c2ccccc2O)[nH]1` was 17.5%; that for `CCOc1ccc(CNC(=O)CCC(=O)N2Cc3ccccc3Oc3ncccc32)cc1` was -51.1%.
The value for `CSCCC(NC(=O)COc1ccccc1)C(=O)N1CCCC(C)C1` (centres unmarked) was 10.4%.
Turning to `CCOC(=O)c1c(-c2ccc(F)cc2)csc1NC(=O)CN1C(=O)NC2(CCCCC2C)C1=O` (centres unmarked), the “hERG current change (%, negative = inhibition) at 10uM” value stood at 11.6%.
The result for `CCN(CC(=O)Nc1ccc(NC(C)=O)cc1)C(=O)c1cccc(-n2cccc2)c1` reads 0.603%; that for `CN(C(=O)c1ccc2c(c1)OCO2)C1CCCCC1`, 19.2%.
The result for `Cc1c(Cl)cccc1N1C(=O)CC(NNC(=O)c2cccs2)C1=O` (centres unmarked) reads 6.66%.
Turning to `COC(=O)c1ccc(NC(=O)CS(=O)(=O)c2ccccc2)cc1`, the “hERG current change (%, negative = inhibition) at 10uM” value worked out at 1.4%.
The result for `Cc1c(Cl)cccc1NC(=O)COC(=O)Cn1cnc2c1c(=O)n(C)c(=O)n2C` reads 4.63%; that for `CCCc1nc2cc3c(cc2[nH]1)n(C)c(=O)n3C.Cl`, 9.08%.
The result for `O=C(C[n+]1cccc2ccccc21)c1ccc(Br)cc1.[Br-]` reads -45.1%.
With `COc1ccc2oc(=O)c(C(=O)Nc3cccc(C(C)=O)c3)cc2c1`, the “hERG current change (%, negative = inhibition) at 10uM” value is reported as 17.3%.
The result for `O=C(NCCN=C1NS(=O)(=O)c2ccccc21)c1ccncc1` reads 7.39%; that for `COC(=O)CCC(=O)NNC(=O)c1ccc(Br)cc1`, 6.12%.
The value for `O=C(CSc1nc(-c2ccco2)cc(C(F)(F)F)n1)Nc1ccccc1C(F)(F)F` was -2.76%; that for `Cc1cccc(NC(=O)Cn2cccc2)c1` was -5.5%; that for `COc1cc(-c2cc(C(=O)Nc3cccc(C(C)=O)c3)c3ccccc3n2)cc(OC)c1OC` was 9.49%.
The result for `Cl.O=C(c1ccc(NS(=O)(=O)c2cccs2)cc1)N1CCN(c2ccccc2Cl)CC1` reads -20.6%.
For the molecule `CC(Oc1ccc(Cl)cc1Cl)C(=O)NNC(=O)c1ccncc1` (centres unmarked), the “hERG current change (%, negative = inhibition) at 10uM” value is recorded as -16.5%.
The value for `CSc1cccc(NS(=O)(=O)c2ccccc2)c1` was 1.03%.
For `CC(CNC(=O)COC(=O)c1ccco1)c1ccccc1` (centres unmarked), the “hERG current change (%, negative = inhibition) at 10uM” value is given as -12.1%.
The value for `COc1ccc(S(=O)(=O)N2CCCOC2CNC(=O)C(=O)NCCCN2CCOCC2)cc1C` (centres unmarked) was -2.43%.
The value for `Cc1ccccc1-n1c(C)nnc1SCC(=O)NNC(=O)c1ccccc1` was 5.31%.
The value for `CSCCC(NC(=O)c1ccc([N+](=O)[O-])cc1Cl)C(=O)OCC(=O)NCC(F)(F)F` (centres unmarked) was -16.7%; that for `O=C(N/N=C/c1c[nH]c2ccccc12)c1ccc(Br)cc1` was -9.13%.
In the case of `CC1CCN(C(=O)CSc2nnc(Cc3cc(=O)[nH]c(=O)[nH]3)n2-c2ccc(Cl)cc2)CC1`, the “hERG current change (%, negative = inhibition) at 10uM” value turned out to be 1.16%.
The value for `COc1cccc(N(C(=O)c2sc(C)nc2C)C(C(=O)NCC2CCCO2)c2ccccc2)c1` (centres unmarked) was -8.87%.
The result for `COc1ccc(/C=C2\SC(=S)N(CCC(=O)N3CCCCC3CCO)C2=O)cc1` (centres unmarked) reads 20%; that for `CC(C)c1ccc(OCC(=O)N2CCc3ccccc3C2)cc1`, 3.06%.
The result for `COC(=O)COc1ccc(-c2nccc(-c3ccc(Br)cc3)n2)cc1` reads -4.37%; that for `CCOC(=O)N1CCN(S(=O)(=O)Cc2ccccc2)CC1`, 15.5%.
As for `CSc1nncc(-c2ccccc2)n1`, the “hERG current change (%, negative = inhibition) at 10uM” value is -0.169%.
The result for `CCN(Cc1ccc(OC)c(F)c1)C(=O)/C=C/c1ccc(S(=O)(=O)N2CCOCC2)cc1` reads -18.3%.
The value for `COc1cc(C(=O)OCC(=O)Nc2cccc(S(=O)(=O)N3CCOCC3)c2)ccc1OCC(C)C` was 18.3%.
For `O=S(=O)(NCCc1ccc2c(c1)OCCO2)c1cccs1`, the “hERG current change (%, negative = inhibition) at 10uM” value was -1.31%.
The value for `COc1cccc(CN2C(=O)[C@@H]3Cc4c([nH]c5ccccc45)C(C)(C)N3C2=O)c1` was -3.35%; that for `C/C(=N\NC(=S)NC1CCCCC1)c1c(F)cccc1F` was -35%; that for `Oc1c(C=C2N=c3ccccc3=N2)sc(=S)n1C1CCCCC1` [17433500] was 6.8%.
The value for `Cc1ccc(S(=O)(=O)N2CCC(C(=O)N[C@@H](C)C(=O)Nc3ccc4c(c3)OCO4)CC2)cc1` was -9.41%; that for `NS(=O)(=O)c1cc(C(=O)Nc2ccc3c(c2)OCCCO3)ccc1Cl` was 17.5%; that for `COc1cccc(C2CC(c3cccc(NS(C)(=O)=O)c3)=NN2C(=O)c2ccccc2)c1OC` (centres unmarked) was -40.5%.
The value for `C=C1CCN([C@H](C(=O)NCc2ccccc2)C(C)C)S(=O)(=O)c2ccccc21` was 3.33%.
